Results reported in the antibiotic and cytotoxicity screens of Wong et al. (2023).
Some of the results follow.

Tests used:
HSkMC = human skeletal muscle cells; assay: cytotoxicity call (relative viability < 0.9); settings: 10 µM
HepG2 = assay: cytotoxicity call (relative viability < 0.9); settings: 10 µM
S. aureus RN4220 = assay: growth inhibition call (relative growth <= 0.2); settings: 50 µM

C[C@H](CO)N1C[C@H](C)[C@H](CN(C)Cc2ccncc2)Oc2ccc(NS(=O)(=O)c3cccs3)cc2CC1=O
inactive: cytotoxicity call (HSkMC) | cytotoxicity call (HepG2) | growth inhibition call (S. aureus RN4220)

COc1ccc(NC(=O)Nc2ccc3c(c2)C(=O)N([C@H](C)CO)C[C@@H](C)[C@H](CN(C)CC2CCCCC2)O3)cc1
inactive: cytotoxicity call (HSkMC) | cytotoxicity call (HepG2) | growth inhibition call (S. aureus RN4220)

C[C@@H](NC(=O)COc1ccccc1)C(=O)O
inactive: cytotoxicity call (HSkMC) | cytotoxicity call (HepG2) | growth inhibition call (S. aureus RN4220)

C[C@H](CO)N1C[C@H](C)[C@@H](CN(C)C(=O)Cc2ccccc2)OCCCC[C@H](C)Oc2ccc(NC(=O)Nc3ccc(C(F)(F)F)cc3)cc2C1=O
inactive: cytotoxicity call (HSkMC) | cytotoxicity call (HepG2) | growth inhibition call (S. aureus RN4220)

Cc1noc(C)c1S(=O)(=O)Nc1ccc2c(c1)C(=O)N([C@H](C)CO)C[C@@H](C)[C@@H](CN(C)S(=O)(=O)c1ccc(F)cc1)O2
inactive: cytotoxicity call (HSkMC) | cytotoxicity call (HepG2) | growth inhibition call (S. aureus RN4220)

COc1ccc(C#Cc2ccc3c(c2)O[C@H](CN(C)S(=O)(=O)c2ccccc2F)[C@H](C)CN([C@@H](C)CO)S3(=O)=O)cc1
inactive: cytotoxicity call (HSkMC) | cytotoxicity call (HepG2) | growth inhibition call (S. aureus RN4220)

C[C@@H]1CCCCO[C@@H](CN(C)C(=O)Nc2ccc(C(F)(F)F)cc2)[C@H](C)CN([C@H](C)CO)C(=O)c2cc(NS(=O)(=O)c3cn(C)cn3)ccc2O1
inactive: cytotoxicity call (HSkMC) | cytotoxicity call (HepG2) | growth inhibition call (S. aureus RN4220)

COc1cc(N2CCO[C@]3(COCCN(CCN(C)C)C3)C2)ncn1
inactive: cytotoxicity call (HSkMC) | cytotoxicity call (HepG2) | growth inhibition call (S. aureus RN4220)

C[C@@H]1CN([C@H](C)CO)C(=O)Cc2cc(NC(=O)Nc3ccc(F)cc3)ccc2O[C@@H]1CN(C)S(C)(=O)=O
inactive: cytotoxicity call (HSkMC) | cytotoxicity call (HepG2) | growth inhibition call (S. aureus RN4220)

OCc1cncnc1
inactive: cytotoxicity call (HSkMC) | cytotoxicity call (HepG2) | growth inhibition call (S. aureus RN4220)

Cc1noc(C)c1NC(=O)N(C)C[C@H]1Oc2c(NC(=O)C3CCOCC3)cccc2C(=O)N([C@@H](C)CO)C[C@H]1C
inactive: cytotoxicity call (HSkMC) | cytotoxicity call (HepG2) | growth inhibition call (S. aureus RN4220)

C[C@@H]1CCCCO[C@@H](CN(C)C(=O)Nc2ccc(C(F)(F)F)cc2)[C@@H](C)CN([C@H](C)CO)C(=O)c2cc(NC(=O)Nc3cccc4ccccc34)ccc2O1
inactive: cytotoxicity call (HSkMC) | cytotoxicity call (HepG2) | growth inhibition call (S. aureus RN4220)

O=C(C[C@@H]1CC[C@H]2[C@@H](COC[C@@H](O)CN2S(=O)(=O)c2ccc(Cl)cc2)O1)NCCN1CCCC1
inactive: cytotoxicity call (HSkMC) | cytotoxicity call (HepG2) | growth inhibition call (S. aureus RN4220)

OC[C@H]1O[C@H](O[C@H]2[C@H](O)[C@@H](O)[C@H](O)O[C@@H]2CO)[C@H](O)[C@@H](O)[C@@H]1O
inactive: cytotoxicity call (HSkMC) | cytotoxicity call (HepG2) | growth inhibition call (S. aureus RN4220)

C[C@H](CO)N1C[C@H](C)[C@@H](CN(C)Cc2ccc3c(c2)OCO3)Oc2c(NC(=O)c3ccncc3)cccc2C1=O
inactive: cytotoxicity call (HSkMC) | cytotoxicity call (HepG2) | growth inhibition call (S. aureus RN4220)

CNC[C@@H](O)CS(=O)(=O)c1ccccc1
inactive: cytotoxicity call (HSkMC) | cytotoxicity call (HepG2) | growth inhibition call (S. aureus RN4220)

O=C(C[C@@H]1CC[C@@H]2[C@H](COC[C@H](O)CN2S(=O)(=O)c2ccccc2F)O1)N1CCC(Cc2ccccc2)CC1
inactive: cytotoxicity call (HSkMC) | cytotoxicity call (HepG2) | growth inhibition call (S. aureus RN4220)

N#Cc1ccc(C(c2ccc(C#N)cc2)n2cncn2)cc1
inactive: cytotoxicity call (HSkMC) | cytotoxicity call (HepG2) | growth inhibition call (S. aureus RN4220)

Cc1ccc(S(=O)(=O)N(C)C[C@H]2OCCCC[C@H](C)Oc3ccc(NC(=O)Nc4cccc5ccccc45)cc3C(=O)N([C@H](C)CO)C[C@@H]2C)cc1
inactive: cytotoxicity call (HSkMC) | cytotoxicity call (HepG2) | growth inhibition call (S. aureus RN4220)

CC(=O)O[C@H]1CCS(=O)(=O)C1
inactive: cytotoxicity call (HSkMC) | cytotoxicity call (HepG2) | growth inhibition call (S. aureus RN4220)

C[C@@H]1CCCCO[C@H](CN(C)Cc2ccncc2)[C@@H](C)CN([C@H](C)CO)C(=O)c2cc(NS(=O)(=O)c3ccc(Cl)cc3)ccc2O1
inactive: cytotoxicity call (HSkMC) | cytotoxicity call (HepG2) | growth inhibition call (S. aureus RN4220)

COc1cccc(S(=O)(=O)N(C)C[C@@H]2Oc3ncc(C#CCN(C)C)cc3C(=O)N([C@H](C)CO)C[C@@H]2C)c1
inactive: cytotoxicity call (HSkMC) | cytotoxicity call (HepG2) | growth inhibition call (S. aureus RN4220)

C[C@@H]1CCCCO[C@H](CN(C)S(=O)(=O)c2cccs2)[C@@H](C)CN([C@H](C)CO)C(=O)c2cc(NS(=O)(=O)c3cn(C)cn3)ccc2O1
inactive: cytotoxicity call (HSkMC) | cytotoxicity call (HepG2) | growth inhibition call (S. aureus RN4220)

COCC#Cc1cnc2c(c1)C(=O)N([C@@H](C)CO)C[C@@H](C)[C@H](CN(C)C(=O)c1cnccn1)O2
inactive: cytotoxicity call (HSkMC) | cytotoxicity call (HepG2) | growth inhibition call (S. aureus RN4220)

CCOC(=O)[C@H]1CN(C(C)(C)C)C(=O)C1=O
inactive: cytotoxicity call (HSkMC) | cytotoxicity call (HepG2) | growth inhibition call (S. aureus RN4220)

C[C@H]1CCCCO[C@@H](CN(C)C(=O)Nc2ccc(F)cc2)[C@@H](C)CN([C@@H](C)CO)C(=O)c2cc(NS(=O)(=O)c3ccc(F)cc3)ccc2O1
inactive: cytotoxicity call (HSkMC) | cytotoxicity call (HepG2) | growth inhibition call (S. aureus RN4220)
